Measured values from US11187705B2, “Method for labeling specifically living microorganisms comprising the use of modified monosaccharide compounds” (CENTRE NATIONAL DE LA RECHERCHE SCIENTIFIQUE (CNRS), priority 2015, dated 2021).

Test system: Pseudomonas fluorescens Migula
Conditions: 10 mM, 24 hours; ATCC 4927
Procedure: All strains were grown in a rotary shaker (160 rpm) at 30 or 37° C.
Overnight cultures were diluted 100 times in fresh medium (final volume 100 μl) containing Kdo-N3(I-1) or Ara-N3(Ia) (10 mM). Microorganisms were incubated at 30 or 37° C. for 24 hours and then washed 3 times with phosphate buffer (0.05 M, pH 7.5) by centrifugation at 13,000×g for 2 min at room temperature.
CuSO4 and TGTA, at a final concentration of 2 mM and 4 mM respectively, were mixed overnight in phosphate buffer (0.05 M, pH 7.5) at 37° C. under vigorous shaking. Next, aminoguanidine, sodium ascorbate and A488-yne (6a) or A594-yne (6b) at a final concentration of 4 mM, 5 mM and 1 mM respectively were added to CuSO4/TGTA overnight mix. […] Finally, cells were then washed 3 times with phosphate buffer by centrifugation at 14,000×g for 2 min at room and analyzed by microscopy.
Microorganisms were inoculated onto glass cover slips and covered with a thin (1 mm of thickness) semisolid 1% agar pad made with dilute LB (1/10 in phosphate buffer (0.05 M, pH 7.5)). Images were recorded with epifluorescence automated microscope (Nikon TE2000-E-PFS, Nikon, France) equipped with a CoolSNAP HQ 2 camera (Roper Scientific, Roper Scientific SARL, France) and a 100×/1.4 DLL objective. Excitation light was emitted by a 120 W metal halide light and signal was monitored using appropriate filters. […]

| Structure (SMILES) | labeling (fluorescence, metabolic incorporation of the chemical reporter) |
| --- | --- |
| [N-]=[N+]=NC[C@H]1OC(O)[C@@H](O)[C@@H]1O (stereo partly drawn) [Ara-N3, 5-Azido-5-deoxy-D-arabinofuranose] | + |
| [N-]=[N+]=NC[C@@H](O)C1OC(O)(C(=O)O)CC(O)[C@H]1O (some centres unmarked) [Kdo-N3, reference compound] | + |
